From patent publication US20260083855A1 (Hoffmann-La Roche, published 2026)

Tests used:
[1] = target: T1, IL-2R on human cells (activated CD4 T cells, PBMC subsets, NK92) (human, UniProt P14784 27-551; P31785 23-369); experiment: cell-based or functional assay; design: AUC of STAT5-P on PD1+ T cells / AUC of STAT5-P on PD1-blocked T cells: unit not given beside the values
T1 sequence (looked up) 1: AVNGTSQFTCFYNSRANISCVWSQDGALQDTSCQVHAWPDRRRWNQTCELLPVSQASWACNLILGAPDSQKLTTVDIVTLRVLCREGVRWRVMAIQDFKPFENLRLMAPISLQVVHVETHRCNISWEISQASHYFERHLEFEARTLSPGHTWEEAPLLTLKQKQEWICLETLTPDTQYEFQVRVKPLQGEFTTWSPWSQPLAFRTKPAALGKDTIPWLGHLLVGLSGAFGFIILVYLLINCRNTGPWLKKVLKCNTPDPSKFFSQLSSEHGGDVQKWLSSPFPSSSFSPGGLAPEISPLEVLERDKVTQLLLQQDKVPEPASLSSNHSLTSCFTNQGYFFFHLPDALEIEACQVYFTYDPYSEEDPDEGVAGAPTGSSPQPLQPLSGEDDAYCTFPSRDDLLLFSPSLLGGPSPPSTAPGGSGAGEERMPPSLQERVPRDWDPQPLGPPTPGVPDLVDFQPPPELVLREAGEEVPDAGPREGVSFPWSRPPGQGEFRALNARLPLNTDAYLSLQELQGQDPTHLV
T1 sequence (looked up) 2: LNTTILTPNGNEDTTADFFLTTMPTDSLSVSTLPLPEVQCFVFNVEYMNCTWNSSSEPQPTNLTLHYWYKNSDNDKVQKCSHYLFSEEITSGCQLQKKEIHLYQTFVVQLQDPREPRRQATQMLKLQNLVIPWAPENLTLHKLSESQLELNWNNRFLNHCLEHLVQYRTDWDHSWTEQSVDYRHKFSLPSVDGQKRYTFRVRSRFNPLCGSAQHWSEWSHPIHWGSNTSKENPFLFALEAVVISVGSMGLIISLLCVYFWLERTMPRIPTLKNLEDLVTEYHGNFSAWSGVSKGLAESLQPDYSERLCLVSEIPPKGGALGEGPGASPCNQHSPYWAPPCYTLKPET

[2] = target: human PD-1 on activated CD4 T cells (human, UniProt Q15116 25-288); experiment: cell-based or functional assay; design: AUC of STAT5-P on PD1+ T cells / AUC of STAT5-P on PD1-blocked T cells: unit not given beside the values
[3] = target: T2, hu IL2R beta-gamma-Fc (P1AD7029-002) (human, UniProt P14784 27-240; P31785 23-262); experiment: SPR, purified, captured via anti-human Fc, IL2Rbg-Fc analyte, 1:1 Langmuir
T2 construct: Analyte in all SPR runs; also called human IL2R beta-gamma Fc; recombinant human IL2Rbeta-gamma-Fc heterodimer; not shown: Fc part and any linker of the heterodimer
T2 sequence (looked up) 1: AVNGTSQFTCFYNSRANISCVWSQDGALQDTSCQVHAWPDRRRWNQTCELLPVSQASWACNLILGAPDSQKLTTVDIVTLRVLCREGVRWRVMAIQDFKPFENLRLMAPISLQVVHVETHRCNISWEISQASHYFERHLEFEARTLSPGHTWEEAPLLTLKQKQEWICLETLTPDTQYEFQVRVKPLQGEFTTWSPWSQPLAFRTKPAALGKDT
T2 sequence (looked up) 2: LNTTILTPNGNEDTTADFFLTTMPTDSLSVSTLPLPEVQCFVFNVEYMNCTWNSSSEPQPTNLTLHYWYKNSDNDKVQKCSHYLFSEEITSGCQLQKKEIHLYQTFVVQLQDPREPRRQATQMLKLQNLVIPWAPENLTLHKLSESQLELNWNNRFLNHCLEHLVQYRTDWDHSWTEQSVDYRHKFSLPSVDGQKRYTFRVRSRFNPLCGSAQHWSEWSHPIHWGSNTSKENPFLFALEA
Excerpt: Bulk refractive index differences were corrected for by subtracting the response obtained on the reference flow cell 1.

Chain of UniProt Q15116 (Q15116 25-288 limits assumed): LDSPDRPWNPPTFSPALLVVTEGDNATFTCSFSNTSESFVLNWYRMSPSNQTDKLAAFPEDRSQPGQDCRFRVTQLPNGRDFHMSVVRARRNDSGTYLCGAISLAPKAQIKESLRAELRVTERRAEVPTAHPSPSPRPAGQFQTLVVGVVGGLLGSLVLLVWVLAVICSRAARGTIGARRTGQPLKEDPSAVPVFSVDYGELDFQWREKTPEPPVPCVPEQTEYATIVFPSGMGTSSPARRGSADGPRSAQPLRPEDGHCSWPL

Binder | AUC of STAT5-P on PD1+ T cells [1] | AUC of STAT5-P on PD1-blocked T cells [1] | Potency reduction vs PD1-IL2v [1] [fold] | Cis-delivery: fold increase in EC50, EC50 [with PD1bl]/EC50 [PD1+] [2] [fold] | Kd [3] [nM] | koff [3] [s⁻¹] | kon [3] [M⁻¹ s⁻¹]
PD1 376 IgG-huIL2v K8S (P1AE0488) (other, Immunoconjugate: anti-human PD-1 (376) IgG1 PG LALA knob/hole, IL2v variant on the knob heavy chain; also called PD1-IL2v K8S) light: DIVMTQSPDSLAVSLGERATINCKASESVDTSDNSFIHWYQQKPGQSPKLLIYRSSTLESGVPDRFSGSGSGTDFTLTISSLQAEDVAVYYCQQNYDVPWTFGQGTKVEIKRTVAAPSVFIFPPSDEQLKSGTASVVCLLNNFYPREAKVQWKVDNALQSGNSQESVTEQDSKDSTYSLSSTLTLSKADYEKHKVYACEVTHQGLSSPVTKSFNRGEC heavy 1: EVQLLESGGGLVQPGGSLRLSCAASGFSFSSYTMSWVRQAPGKGLEWVATISGGGRDIYYPDSVKGRFTISRDNSKNTLYLQMNSLRAEDTAVYYCVLLTGRVYFALDSWGQGTLVTVSSASTKGPSVFPLAPSSKSTSGGTAALGCLVKDYFPEPVTVSWNSGALTSGVHTFPAVLQSSGLYSLSSVVTVPSSSLGTQTYICNVNHKPSNTKVDKKVEPKSCDKTHTCPPCPAPEAAGGPSVFLFPPKPKDTLMISRTPEVTCVVVDVSHEDPEVKFNWYVDGVEVHNAKTKPREEQYNSTYRVVSVLTVLHQDWLNGKEYKCKVSNKALGAPIEKTISKAKGQPREPQVCTLPPSRDELTKNQVSLSCAVKGFYPSDIAVEWESNGQPENNYKTTPPVLDSDGSFFLVSKLTVDKSRWQQGNVFSCSVMHEALHNHYTQKSLSLSPGK heavy 2: EVQLLESGGGLVQPGGSLRLSCAASGFSFSSYTMSWVRQAPGKGLEWVATISGGGRDIYYPDSVKGRFTISRDNSKNTLYLQMNSLRAEDTAVYYCVLLTGRVYFALDSWGQGTLVTVSSASTKGPSVFPLAPSSKSTSGGTAALGCLVKDYFPEPVTVSWNSGALTSGVHTFPAVLQSSGLYSLSSVVTVPSSSLGTQTYICNVNHKPSNTKVDKKV[human IgG1 Fc with changes not written out]GGGGSGGGGSGGGGSAPASSSTSKTQLQLEHLLLDLQMILNGINNYKNPKLTRMLTAKFAMPKKATELKHLQCLEEELKPLEEVLNGAQSKNFHLRPRDLISNINVIVLELKGSETTFMCEYADETATIVEFLNRWITFAQSIISTLT | 201 | 99.7 | 1.49 | 26.7 | 0.002 | 3.07e-07 | 186000
PD1 376 IgG-huIL2v L12A (P1AE0490) (other, Immunoconjugate: anti-human PD-1 (376) IgG1 PG LALA knob/hole, IL2v variant on the knob heavy chain; also called PD1-IL2v L12A) light: DIVMTQSPDSLAVSLGERATINCKASESVDTSDNSFIHWYQQKPGQSPKLLIYRSSTLESGVPDRFSGSGSGTDFTLTISSLQAEDVAVYYCQQNYDVPWTFGQGTKVEIKRTVAAPSVFIFPPSDEQLKSGTASVVCLLNNFYPREAKVQWKVDNALQSGNSQESVTEQDSKDSTYSLSSTLTLSKADYEKHKVYACEVTHQGLSSPVTKSFNRGEC heavy 1: EVQLLESGGGLVQPGGSLRLSCAASGFSFSSYTMSWVRQAPGKGLEWVATISGGGRDIYYPDSVKGRFTISRDNSKNTLYLQMNSLRAEDTAVYYCVLLTGRVYFALDSWGQGTLVTVSSASTKGPSVFPLAPSSKSTSGGTAALGCLVKDYFPEPVTVSWNSGALTSGVHTFPAVLQSSGLYSLSSVVTVPSSSLGTQTYICNVNHKPSNTKVDKKVEPKSCDKTHTCPPCPAPEAAGGPSVFLFPPKPKDTLMISRTPEVTCVVVDVSHEDPEVKFNWYVDGVEVHNAKTKPREEQYNSTYRVVSVLTVLHQDWLNGKEYKCKVSNKALGAPIEKTISKAKGQPREPQVCTLPPSRDELTKNQVSLSCAVKGFYPSDIAVEWESNGQPENNYKTTPPVLDSDGSFFLVSKLTVDKSRWQQGNVFSCSVMHEALHNHYTQKSLSLSPGK heavy 2: EVQLLESGGGLVQPGGSLRLSCAASGFSFSSYTMSWVRQAPGKGLEWVATISGGGRDIYYPDSVKGRFTISRDNSKNTLYLQMNSLRAEDTAVYYCVLLTGRVYFALDSWGQGTLVTVSSASTKGPSVFPLAPSSKSTSGGTAALGCLVKDYFPEPVTVSWNSGALTSGVHTFPAVLQSSGLYSLSSVVTVPSSSLGTQTYICNVNHKPSNTKVDKKV[human IgG1 Fc with changes not written out]GGGGSGGGGSGGGGSAPASSSTKKTQAQLEHLLLDLQMILNGINNYKNPKLTRMLTAKFAMPKKATELKHLQCLEEELKPLEEVLNGAQSKNFHLRPRDLISNINVIVLELKGSETTFMCEYADETATIVEFLNRWITFAQSIISTLT | 197 | 84.1 | 1.49 | 44.5 | 0.13 | 2.64e-05 | 196000
PD1 376 IgG-huIL2v L19V (P1AE0491) (other, Immunoconjugate: anti-human PD-1 (376) IgG1 PG LALA knob/hole, IL2v variant on the knob heavy chain; also called PD1-IL2v L19V) light: DIVMTQSPDSLAVSLGERATINCKASESVDTSDNSFIHWYQQKPGQSPKLLIYRSSTLESGVPDRFSGSGSGTDFTLTISSLQAEDVAVYYCQQNYDVPWTFGQGTKVEIKRTVAAPSVFIFPPSDEQLKSGTASVVCLLNNFYPREAKVQWKVDNALQSGNSQESVTEQDSKDSTYSLSSTLTLSKADYEKHKVYACEVTHQGLSSPVTKSFNRGEC heavy 1: EVQLLESGGGLVQPGGSLRLSCAASGFSFSSYTMSWVRQAPGKGLEWVATISGGGRDIYYPDSVKGRFTISRDNSKNTLYLQMNSLRAEDTAVYYCVLLTGRVYFALDSWGQGTLVTVSSASTKGPSVFPLAPSSKSTSGGTAALGCLVKDYFPEPVTVSWNSGALTSGVHTFPAVLQSSGLYSLSSVVTVPSSSLGTQTYICNVNHKPSNTKVDKKVEPKSCDKTHTCPPCPAPEAAGGPSVFLFPPKPKDTLMISRTPEVTCVVVDVSHEDPEVKFNWYVDGVEVHNAKTKPREEQYNSTYRVVSVLTVLHQDWLNGKEYKCKVSNKALGAPIEKTISKAKGQPREPQVCTLPPSRDELTKNQVSLSCAVKGFYPSDIAVEWESNGQPENNYKTTPPVLDSDGSFFLVSKLTVDKSRWQQGNVFSCSVMHEALHNHYTQKSLSLSPGK heavy 2: EVQLLESGGGLVQPGGSLRLSCAASGFSFSSYTMSWVRQAPGKGLEWVATISGGGRDIYYPDSVKGRFTISRDNSKNTLYLQMNSLRAEDTAVYYCVLLTGRVYFALDSWGQGTLVTVSSASTKGPSVFPLAPSSKSTSGGTAALGCLVKDYFPEPVTVSWNSGALTSGVHTFPAVLQSSGLYSLSSVVTVPSSSLGTQTYICNVNHKPSNTKVDKKV[human IgG1 Fc with changes not written out]GGGGSGGGGSGGGGSAPASSSTKKTQLQLEHLLVDLQMILNGINNYKNPKLTRMLTAKFAMPKKATELKHLQCLEEELKPLEEVLNGAQSKNFHLRPRDLISNINVIVLELKGSETTFMCEYADETATIVEFLNRWITFAQSIISTLT | 201 | 92.7 | 1.45 | 36 | 0.18 | 3.57e-05 | 196000
